Laboratory results: PubChem BioAssay AID1645882 (National Center for Advancing Translational Sciences (NCATS), 2021)
Hit rate of the full screen: of about 16,000 compounds, about 120 (0.75%) were called active. Roughly 4% stayed inconclusive and do not appear here. Calls come from the whole dose curve; as a rule, active = well fitted inhibition curve with a large enough effect; inconclusive = small, poorly fitted or top-dose-only effect; inactive = no such curve, though single readings can be large or run the other way. The list shows a part of the results. Where a SMILES comes first, the peptide text is derived from it. Bridges are numbered along the chain shown (N, C = ends).

target: Rap guanine nucleotide exchange factor 3 (Homo sapiens) (UniProt O95398); assay: Validation qHTS for antagonist of cAMP-regulated guanine nucleotide exchange factor 3 (EPAC1); conditions: EPAC1 Rap1B-BODIPY-GDP exchange, fluorescence; series mostly up to 150 µM; activity change, negative = inhibition: at the top concentration;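 note: plate controls were DMSO for no effect and ATA control for full effect; nearly all actives have a fitted effect of over 75% in size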
Outline: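 Nucleotide exchange followed as fluorescence loss when BODIPY-GDP leaves Rap1B (480 nm excitation, 540 nm emission), read at 5 min intervals over 30 min. Reaction: 100 nM EPAC1, 250 nM RAP1B-BODIPY-GDP, 50 uM GDP; ATA and DMSO define normalization.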

UniProt O95398, sequence (O95398 whole entry, looked up): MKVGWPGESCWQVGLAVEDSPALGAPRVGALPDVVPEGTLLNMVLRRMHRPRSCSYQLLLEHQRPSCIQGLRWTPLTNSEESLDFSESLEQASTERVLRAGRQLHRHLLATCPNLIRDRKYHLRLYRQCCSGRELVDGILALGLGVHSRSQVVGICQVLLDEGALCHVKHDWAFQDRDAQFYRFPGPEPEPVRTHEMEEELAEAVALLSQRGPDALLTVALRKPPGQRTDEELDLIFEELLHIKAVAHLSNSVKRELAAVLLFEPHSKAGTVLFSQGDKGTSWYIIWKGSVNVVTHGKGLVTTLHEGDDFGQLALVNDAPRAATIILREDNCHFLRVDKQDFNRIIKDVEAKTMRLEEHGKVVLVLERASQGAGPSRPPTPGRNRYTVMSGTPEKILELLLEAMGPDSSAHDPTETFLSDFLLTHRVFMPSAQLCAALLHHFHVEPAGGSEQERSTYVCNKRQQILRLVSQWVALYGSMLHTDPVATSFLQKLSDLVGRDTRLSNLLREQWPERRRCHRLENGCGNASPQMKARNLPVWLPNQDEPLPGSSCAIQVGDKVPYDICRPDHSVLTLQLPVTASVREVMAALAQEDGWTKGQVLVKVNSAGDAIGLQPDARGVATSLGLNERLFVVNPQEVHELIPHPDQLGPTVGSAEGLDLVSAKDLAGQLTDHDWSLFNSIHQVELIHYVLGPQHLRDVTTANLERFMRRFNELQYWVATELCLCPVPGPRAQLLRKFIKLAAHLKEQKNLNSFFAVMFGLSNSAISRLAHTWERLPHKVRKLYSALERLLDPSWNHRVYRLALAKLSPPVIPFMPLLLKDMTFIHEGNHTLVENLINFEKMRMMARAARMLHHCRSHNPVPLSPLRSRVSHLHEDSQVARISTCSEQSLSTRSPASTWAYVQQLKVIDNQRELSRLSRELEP

Activity change, negative = inhibition, inactive:
COc1cc2c(cc1OC)C(c1ccccc1)=NCC2 1.38%
COc1cccc(C=NC=Nc2cccc(OC)c2)c1 -20.7%
C[N+](C)(CCCCCC[N+](C)(C)CCCN1C(=O)c2cccc3cccc(c23)C1=O)CCCN1C(=O)c2cccc3cccc(c23)C1=O -1.42% [at 75.8 µM]
C[C@H](NC[C@H](O)CP(=O)(O)CC1CCCCC1)c1ccc(Cl)c(Cl)c1
CC(C)=CC1C(CO)C1(C)C (stereo unspecified) 14%
CC(C)n1cnc2c(NCc3ccccc3)nc(NCCO)nc21 15.9%
NCCCC[C@H](NC(=O)[C@@H]1CCCN1C(=O)[C@@H]1CSSC[C@H](N)C(=O)N[C@@H](Cc2ccccc2)C(=O)N[C@@H](Cc2ccccc2)C(=O)N[C@@H](CCC(N)=O)C(=O)N[C@@H](CC(N)=O)C(=O)N1)C(=O)NCC(N)=O (H-CFFQNCPKG-NH2; disulfide 1-6) -1.51%
[O]=[Bi][O]C(=O)[O][Bi]=[O] 22.7%
Cc1occc(=O)c1O 4.53%
O=C(O)c1ccc(OCCn2ccnc2)cc1 18%
COc1ccc(CNC(=O)C[C@H]2C(=O)N(Cc3ccc(OC)cc3)C[C@@H]2Cc2ccccc2)cc1 0.242%
O=C(O)COc1ccc(CCNS(=O)(=O)c2ccccc2)s1 13.5%
NC(CCCP(=O)(O)O)C(=O)O (stereo unspecified) 20.6% [at 75.8 µM]
CCCS(=O)(=O)NCc1c(C)ncc2c1CCN(C(=O)c1ccc(F)c(F)c1)C2 20.6%
COc1cc(-c2cc(C)c3cccc(OC)c3n2)cc2c1OCCN(C(=O)CCn1ccc(C)n1)C2 15%
COCCn1c(=O)c(-c2ccccc2)nc2cnc(Nc3ccccc3)nc21 19.2%
COCCn1c(=O)cnc2cnc(OCc3ccccc3)nc21 9.11%
O=c1c(-c2cccs2)nc2cncnc2n1-c1ccccc1 -8.23%
CCCCN(CCCC)CCC(O)c1cc2c(Cl)cc(Cl)cc2c2cc(C(F)(F)F)ccc12 (stereo unspecified) -16.1% [at 75.8 µM]
C#C[C@]1(O)CC[C@H]2[C@@H]3CCc4cc(O)ccc4[C@H]3CC[C@@]21C 4.15%
CC(=O)N[C@@H](C)C(=O)NCC1Cc2cccc(-c3ccccc3C(F)(F)F)c2O1 (stereo partly specified) 13.1%
CC(=O)OC1CC2C(C)(C)C=CC(=O)[C@@]2(C)C2CC[C@@]3(C)C(c4ccoc4)OC(=O)C4OC43[C@]12C (stereo partly specified) -8.97%
CCNc1ncc2nc(-c3ccccc3)c(=O)n(-c3ccc(OC)cc3)c2n1 18.3%
Cc1ccccc1C1(CC(=O)N2CCCCC2c2cccnc2)CC(=O)N(C2CCCC2)C1=O (stereo unspecified) -21.5%
C=CCCCCCCCCCCCC(O)CC(O)COC(C)=O (stereo unspecified) (tested in a mixture with another compound) -29.3%
N#Cc1ccc(CN2CCCC3(CCN(C(=O)c4cnccn4)CC3)C2)cc1 8.39%
CC(C(=O)O)c1cccc(C(=O)c2ccccc2)c1 (stereo unspecified)
Nc1nc(N)c2nc(CNc3ccc(C(=O)N[C@@H](CCC(=O)O)C(=O)O)cc3)cnc2n1 13.1%
CC1(C)OC2C(CO)OC(n3cnc4c(=O)[nH]cnc43)C2O1 (stereo unspecified) 18.8%
COC(=O)N1CCC2(CC1)CCN(C(c1ccccc1)c1ccccc1)CC2 4.62%
CC(=O)Nc1ccc(/C=N/NC(N)=S)cc1
O=C(O)Cc1ccc(OCCNC[C@H](O)c2ccccc2)cc1 28.3%
COc1ccccc1-c1cncnc1NCc1ccccc1 0.645%
COc1ccccc1N1CCN(c2nc(CNC(=O)c3cc(C)oc3C)nc3ccccc23)CC1 13.7%
O=C(NCC1Cc2cccc(-c3ncccn3)c2O1)c1cccc(-c2ccccc2F)c1 (stereo unspecified) -6.89%
Cn1c(=O)cnc2cnc(Nc3ccccc3)nc21 11.8%
COc1cccc(Nc2ncc3nc(C)c(=O)n(CCc4ccccc4)c3n2)c1 10.9%
COc1ccccc1CNc1cc(-c2ccccc2C)ncn1 -6.35%
O=C(c1ccncc1)N1CCC2(CC1)CCN(C(c1ccccc1)c1ccccc1)CC2 10.5%
CC1O[C@@H](O[C@H]2C(Oc3cc(O)c4c(c3)OC(c3ccc(O)cc3)CC4=O)OC(CO)C(O)C2O)C(O)C(O)C1O (stereo partly specified) 18%
CCNc1ncc2nc(-c3ccc(Cl)cc3)c(=O)n(Cc3ccc(F)cc3)c2n1 19%
CCN1CCCC1CNC(=O)c1cnn(-c2nccc(-c3cc(OC)ccc3OC)n2)c1C (stereo unspecified) 4.08%
CN(C)C(=O)c1ccc(-c2ccc3ncnc(NCc4cccnc4)c3c2)cc1 15.8%
N#Cc1cccc(NC(=O)N2CCCC3(CCN(C(=O)c4ccco4)CC3)C2)c1 43%
COCCNc1ncnc2ccc(-c3cccc(OC)c3)cc12 -0.812%
CC(O)COc1ccccc1 (stereo unspecified) -6.99%
O=C1O/C(=C/Br)CCC1c1cccc2ccccc12 (stereo unspecified) -7.67% [at 75.8 µM]
O=CN1CCCN(C(=O)c2cc(NC(=O)c3ccccc3)cc3ncn(C4CCCC4)c23)CC1 -1.61%
COc1ccc(CCNc2ncnc3sc(C(=O)N4CCCC4)c(C)c23)cc1OC 6.93%
O=C(Nc1ccc(C(F)(F)F)cc1[N+](=O)[O-])O[C@H]1[C@H](Cc2ccccc2)NS(=O)(=O)[C@H]2C[C@@H]3C=C[C@]12O3 0.549%
CN1CCN(c2ncc3nc(-c4cc(F)cc(F)c4)c(=O)n(CCc4ccccc4)c3n2)CC1 13.7%
COC(=O)N1CCC[C@@]2(CCN(Cc3nccs3)C2)C1 31.6%
CC(C)NC(=O)N1CC2(CCN(C(=O)c3ccncc3)CC2)C1 29.4%
CCC1CN(CCNC(=O)c2ccccc2-n2cccn2)Cc2cc(OC)ccc2O1 (stereo unspecified) 21.6%
Cc1ccc(CN2C[C@@H](Sc3nc(C)cc(C)n3)C[C@H]2C(=O)N2CCN(c3ccccc3F)CC2)cc1 -6.82%
COc1ccc(CN2[C@@H](CC(=O)O)c3cc(C(F)(F)F)ccc3S2(=O)=O)cc1 -8.45%
Cc1cc(C)c(NC(=O)CN(CC(=O)O)CC(=O)O)c(C)c1Br 6.91%
CO/S(=N\S(=O)(=O)c1ccc(Cl)cc1)c1ccc([N+](=O)[O-])cc1 (stereo unspecified) 4.9% [at 75.8 µM]
COc1ccc(-c2c(-c3ccc4c(c3)OCO4)noc2C)cn1 -4.31%
O=C(c1csnn1)N1CCC2(CC1)CN(c1ccccc1)C2 12.3%
CC1=C(/C=C/C(C)=C/C=C/C(C)=C/C=C/C=C(C)/C=C/C=C(C)/C=C/C2=C(C)C(=O)CCC2(C)C)C(C)(C)CCC1=O 6.97%
C=C1CC[C@H](O)C/C1=C/C=C1\CCC[C@]2(C)C([C@H](C)CCCC(C)(C)O)CC[C@@H]12 (stereo partly specified)
CC(C)(S)C(=O)N[C@@H](CS)C(=O)O
COc1ncc2nc(C)c(=O)n(Cc3cccs3)c2n1 18.4%
COc1cc(=O)n2c(c1C(=O)NCc1nonc1C)CCN(C(=O)c1cccc(C)c1C)CC2 1.64%
CC(=O)OC1C[C@]2(C)[C@@H](CC(O)C3[C@]4(C)CCC(O)C(C)[C@@H]4CC[C@]32C)/C1=C(/CCC=C(C)C)C(=O)O (stereo partly specified) 19%
COc1ccc(-c2oc3ccc(C)cc3c(=O)c2O)cc1OC 5.13%
CCNc1ncc2nc(-c3cn(C)c4ccccc34)c(=O)n(Cc3ccc(F)cc3)c2n1 -2.55%
NCC(O)(CS(=O)(=O)O)c1ccc(Cl)cc1 (stereo unspecified) -10.2% [at 75.8 µM]
C[C@@H](N)C1CCC(C(=O)Nc2ccncc2)CC1 (stereo partly specified)
CC[C@H](NC(=O)c1c(C)c(-c2ccccc2)nc2ccccc12)c1ccccc1 15.2% [at 75.8 µM]
CCOC(=O)c1ncn2c1CN(C)C(=O)c1cc(F)ccc1-2
O=NN(CCCl)C(=O)NCCCl
CN1[C@@H]2CC[C@H]1CC(OC(=O)c1c[nH]c3ccccc13)C2 (stereo partly specified) 3.58%
CCCCCCCCCCCCCCCCCCOCC(COP(=O)([O-])OCC[N+](C)(C)C)OC (stereo unspecified) 3.62%
COc1ccccc1CNc1cc(-c2cccc(C#N)c2)ncn1 7.87%
Cc1cc(C)nc(S[C@H]2C[C@@H](C(=O)N3CCN(c4ccccc4F)CC3)N(Cc3ccccc3C(F)(F)F)C2)n1 -3.21%
OC1C2COC(O2)[C@H](O)C1O (stereo partly specified) 8.9%
COc1cccc(Cn2c(=O)c(-c3ccc(Cl)cc3)nc3cnc(N(C)C)nc32)c1 2.19%
CCCCN1CC[C@H]2C=CC[C@@H](C(=O)N3CCOCC3)[C@H]2C1=O -0.486%
Cc1onc(-c2ccccc2)c1C(=O)N[C@@H]1C(=O)N2[C@@H](C(=O)O)C(C)(C)S[C@@H]12 27%
COc1cc(-c2noc(C)c2-c2ccc(N(C)C)nc2)cc(OC)c1OC -5.82%
CN(Cc1ccco1)c1nc(-c2ccccc2C(F)(F)F)nc2ccccc12 -17.7%
COc1ccccc1-c1ccc2ncnc(NCCN3CCOCC3)c2c1 3.47%
COc1ccc(OC)c(-c2cc(Cl)c3c(c2)CC(CNC(=O)[C@@H]2CCCN2C(C)=O)O3)c1 (stereo partly specified) 16.9%
Cc1ccccc1C1(CC(=O)N2CCOCC2)CC(=O)N(Cc2cccnc2)C1=O (stereo unspecified) 12%
O=C(O)C[C@H]1c2cc(C(F)(F)F)ccc2S(=O)(=O)N1C1CCCCC1 -11.6%
COc1cc(C(C)=O)ccc1OCCCN1CCC(c2noc3cc(F)ccc23)CC1 -1.17%
CCOC(=O)[C@H](CCc1ccccc1)N[C@H]1CCCN2CCC[C@@H](C(=O)O)N2C1=O 33.8%
CCCC1O[C@@H]2C[C@H]3[C@@H]4CCC5=CC(=O)C=C[C@]5(C)[C@H]4[C@@H](O)C[C@]3(C)[C@]2(C(=O)CO)O1 (stereo partly specified)
NCCC1CCCC(CCN)N1 (stereo unspecified) -4.74% [at 75.8 µM]
CCS(=O)(=O)Nc1cc(C(=O)N2CCC[C@H]2CO)c2c(c1)nc(-c1ccccc1)n2C 9.25%
c1ccc(-c2ccc(N3CC[C@@]4(CCCNC4)C3)cc2)cc1 -14.8%
Cc1cc(COC(=O)C2N3C(=O)[C@@H](NC(=O)COc4ccccc4)[C@H]3SC2(C)C)on1 (stereo partly specified) -2.62%
COc1cc(-c2nc(C)cnc2C)cc2c1OCCN(C(=O)Cc1cc(OC)c(OC)c(OC)c1)C2 28.2%
CC[C@H]1C(=O)[C@@H](Cc2ccccc2)[C@@H]2CCN3C(=O)CCC[C@H]1[C@H]23 -15%
